Measurements published in paper PMC4336329 (PLoS ONE, 2015).
Among all 310,000 compounds or so, about 2,200 (0.71%) showed an effect of 50% or more. Effects have a minus sign here. The list shows a part of the results.

biological target: human ether-à-go-go-related gene (hERG) potassium channel (human, UniProt Q12809); experiment: primary screen, population patch clamp on CHO cells stably expressing hERG
Sequence (Q12809 whole entry, looked up): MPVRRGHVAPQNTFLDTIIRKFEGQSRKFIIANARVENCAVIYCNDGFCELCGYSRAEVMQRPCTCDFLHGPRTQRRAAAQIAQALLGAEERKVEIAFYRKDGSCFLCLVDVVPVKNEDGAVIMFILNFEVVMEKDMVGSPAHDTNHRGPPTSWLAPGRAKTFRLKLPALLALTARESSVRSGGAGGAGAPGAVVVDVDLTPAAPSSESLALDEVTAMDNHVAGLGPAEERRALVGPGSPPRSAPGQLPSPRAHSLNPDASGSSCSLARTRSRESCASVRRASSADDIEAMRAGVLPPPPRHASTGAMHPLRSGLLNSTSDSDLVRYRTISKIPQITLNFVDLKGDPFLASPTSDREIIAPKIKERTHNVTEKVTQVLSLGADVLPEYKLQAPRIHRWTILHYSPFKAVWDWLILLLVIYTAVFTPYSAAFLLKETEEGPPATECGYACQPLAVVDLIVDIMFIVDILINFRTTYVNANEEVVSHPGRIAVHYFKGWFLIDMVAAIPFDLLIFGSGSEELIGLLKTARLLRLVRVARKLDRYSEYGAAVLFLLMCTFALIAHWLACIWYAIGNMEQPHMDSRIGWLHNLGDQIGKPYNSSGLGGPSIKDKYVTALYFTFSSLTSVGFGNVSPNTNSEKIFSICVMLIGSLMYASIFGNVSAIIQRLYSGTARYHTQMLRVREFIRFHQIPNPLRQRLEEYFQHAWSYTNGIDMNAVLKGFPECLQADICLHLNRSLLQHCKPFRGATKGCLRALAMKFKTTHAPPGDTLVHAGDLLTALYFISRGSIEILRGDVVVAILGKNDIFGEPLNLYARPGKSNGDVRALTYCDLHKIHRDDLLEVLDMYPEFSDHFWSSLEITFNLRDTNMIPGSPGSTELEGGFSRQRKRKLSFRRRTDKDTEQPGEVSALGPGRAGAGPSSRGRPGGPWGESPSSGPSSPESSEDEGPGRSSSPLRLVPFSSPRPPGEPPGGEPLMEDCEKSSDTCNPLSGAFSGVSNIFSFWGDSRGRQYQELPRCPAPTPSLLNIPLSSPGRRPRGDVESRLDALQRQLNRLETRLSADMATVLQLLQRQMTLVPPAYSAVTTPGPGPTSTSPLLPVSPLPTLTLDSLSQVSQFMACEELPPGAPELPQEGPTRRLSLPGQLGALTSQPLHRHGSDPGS

Row | Compound | hERG current change (%, negative = inhibition) at 1uM [%]
1 | CC(NC(=O)CSCc1ccccc1Br)c1ccccc1 (stereo not shown) | 4.12
2 | CCOc1cc(C(=O)Nc2ccc(S(=O)(=O)Nc3cnc4ccccc4n3)cc2)cc(OCC)c1OCC | 12.2
3 | CC(C)(Oc1ccc(Cl)cc1)C(=O)OCn1nnc2ccccc2c1=O | 18.2
4 | Cn1c(CNC(=O)CCNC(=O)c2cccc(Cl)c2)cc(=O)n(C)c1=O | 10.3
5 | CN1C(C)(C)CCCC1(C)C.O=C(O)C(O)C(O)C(=O)O | 15.2
6 | CCCN(CCC)C(=O)Cn1c(=O)c2sccc2n2c(=S)sc(-c3ccccc3)c12 | 8.57
7 | CCc1ccc(C(=O)Nc2ccc(OC)c(S(=O)(=O)N3CCOCC3)c2)cc1 | -3.08
8 | CCS(=O)(=O)N1Cc2ccccc2CC1C(=O)Nc1ccc(F)c(F)c1F (stereo not shown) | 9.21
9 | C/C(O)=C(\C#N)C(=O)Nc1cc(Br)ccc1Br | 17
10 | Nc1nc2n(n1)C(c1ccco1)CC(c1ccc(Cl)cc1)N2 (stereo not shown) | -0.238
11 | Cc1ccccc1CN(C)C(=O)[C@H](Cc1ccccc1)NC(=O)c1ccco1 | 8.99
12 | Cc1ccc(Nc2nc(N)c([N+](=O)[O-])c(N3CCC(C)CC3)n2)cc1C | 4.62
13 | CC1CN(C(=O)CN2C(=O)NC3(CCCCCC3)C2=O)CC(C)O1 (stereo not shown) | 10.7
14 | COc1ccccc1[C@@]1(C)ON(c2ccccc2C(F)(F)F)C1=O | 10
15 | CCN(CC)Cc1c(C(=O)OC(C)C)nnn1-c1nonc1N | 10.7
16 | CCC(C)(C)NC(=S)Nc1ccc(-c2nc3ccc(C)cc3s2)cc1 | 13.2
17 | O=c1c(N2CCCCC2)coc2ccccc12 | 14.2
18 | CC(=O)c1cccc(NC(=O)c2ccc(NC(=O)CCS(=O)(=O)c3cccs3)cc2)c1 | 16.4
19 | Cc1ccc(S(=O)(=O)N2CCC3(CC2)OCCO3)s1 | 13.9
20 | CCCCC1CCC(C(=O)N(C)CC(=O)Nc2cccc(F)c2)CC1 (stereo not shown) | 14.6
21 | COC(=O)C1=Nc2ccccc2/C1=C\c1c(O)n(-c2ccc(OC)cc2)c(=O)[nH]c1=O | 4.75
22 | Cc1csc2ncc(C(=O)NCc3ccc4c(c3)OCO4)c(=O)n12 | 8.03

Row | Compound | hERG current change (%, negative = inhibition) at 1uM [%]
23 | CCn1ncc(Br)c1C(=O)Nc1ccc(C(C)C)cc1 | 11.1
24 | CC(Oc1ccc2ccc(=O)oc2c1)C(=O)NC(Cc1c[nH]c2ccc(O)cc12)C(=O)O (stereo not shown) | 9.61
25 | O=C(Nc1cccc(Cl)c1N1CCOCC1)c1cccs1 | 5.11
26 | Cc1cc(C)cc(NC(=O)C(OC(=O)C2=COCCO2)c2ccccc2)c1 (stereo not shown) | 6.62
27 | O=C(CSc1nnc2ccc(-c3ccccn3)nn12)Nc1ccccc1F | 23.4
28 | O=C(CCS(=O)(=O)Cc1ccccc1)N1CCc2ccccc2C1 | 8.69
29 | O=C(CCC(=O)Nc1ccccc1Cl)NN=C1CCCC1 | 11.7
30 | COc1cccc(NC(=O)COC(=O)Cc2ccc(Br)cc2)c1 | 11.8
31 | COC(=O)C1=C(C)NC(=O)NC1c1ccc(-c2ccc(F)cc2)o1 (stereo not shown) | 12.9
32 | CCN=C1SC(CC(=O)NC(C)c2ccccc2)C(=O)N1CC (stereo not shown) | 4.49
33 | CCN(CC)S(=O)(=O)c1ccc(C(=O)Nc2cc(C)cc(C)c2)cc1 | 13
34 | CCOC(=O)C[C@H]1c2ccccc2S(=O)(=O)N1c1cccc(OC)c1 | 8.07
35 | COC(=O)c1ccc(NC(=O)C23CC4CC(C2)CC(n2cnc(Cl)n2)(C4)C3)cc1 | 12.6
36 | CCCN1CCN(S(=O)(=O)c2ccc3c(c2)NC(=O)C(C)S3)CC1 (stereo not shown) | 6.81
37 | Cc1ccc(NS(=O)(=O)c2ccc3c(c2)NC(=O)C(C)C(=O)N3)c(Cl)c1 (stereo not shown) | 4.38
38 | CCOc1ccccc1OCc1nn2c(COc3ccccc3)nnc2s1 | -0.449
39 | CC(C)(C)C1CCc2c(C(=O)NNC(=O)/C=C/C(=O)O)csc2C1 (stereo not shown) | 14.8
40 | CCCn1cc(SCC(=O)NCc2ccc3c(c2)OCO3)c2ccccc21 | 10.4
41 | CC/C(C)=N/NC(=O)c1[nH]c2ccc(C)cc2c1-c1ccccc1 | -1.75
42 | COc1ccc2cc(C(=O)N(C)CC(=O)Nc3ccccc3Br)ccc2c1 | 4.14
43 | Cc1cccc(C(=O)Nc2ccccc2-c2nnn(CC(=O)Nc3ccc4c(c3)OCCO4)n2)c1 | 12.2
44 | Cc1cc(NC(=O)CSc2nnc(COc3cccc(C)c3C)n2Cc2ccco2)no1 | 2.63

Row | Compound | hERG current change (%, negative = inhibition) at 1uM [%]
45 | CC1CCN(C(=O)Cn2cc(S(=O)(=O)CC(=O)N3CCOCC3)c3ccccc32)CC1 | 6.8
46 | CCN(CC)CCN=C(C)c1c(O)n(-c2ccccc2OC)c(=O)[nH]c1=O | 5.94
47 | NC(=O)c1sc(-c2ccsc2)cc1NS(=O)(=O)c1ccc(C(F)(F)F)cc1 | 12.5
48 | O=C(NCCC1CCCCN1S(=O)(=O)c1cccs1)C(=O)Nc1ccc(F)cc1F (stereo not shown) | 13
49 | O=C(N/N=C/c1cccc(NC(=O)c2ccc(Cl)cc2)c1)c1cccc(O)c1 | 10.9
50 | O=C(NCCc1ccccn1)c1ccc2nc(Cc3ccccc3F)oc2c1 | -4.32
51 | CSc1ncc(CN2CCc3c([nH]c4ccccc34)C2c2cccc(O)c2)cn1 (stereo not shown) | 10.4
52 | CSC1=C(C#N)C(c2ccccc2Cl)C2=C(N1)c1ccccc1C2=O (stereo not shown) | 17.2
53 | O=C(Cc1cccs1)Nc1ccc2c(c1)C(=O)OC2 | 11.4
54 | CC(=O)NC(=S)Nc1ccc([N+](=O)[O-])cc1C | -3.41
55 | Cc1oc(C)c2c(=O)ccc3c(c12)OC(N)=C(C#N)C3c1ccc(F)cc1 (stereo not shown) | -6.81
56 | Cc1cccc(C)c1NC(=O)COC(=O)CN1C(=O)C2CCCCC2C1=O (stereo not shown) | 2.37
57 | COc1ccc(/C=C(\C#N)C(=O)OCC(=O)NC2CC2)cc1 | 3.16
58 | Cn1nc([N+](=O)[O-])c(C(C#N)c2ccccn2)c(Cl)c1=O (stereo not shown) | 9.21
59 | Cn1c(=NC(=O)CS(=O)(=O)c2ccccc2)sc2cc([N+](=O)[O-])ccc21 | -5.77
60 | Cc1c(N=Cc2c(O)n(Cc3ccc(F)cc3)c(=O)[nH]c2=O)c(=O)n(-c2ccccc2)n1C | 3.44
61 | COCCNc1nnc(SC(C)C(=O)Nc2ccc(-c3nc4ccc(C)cc4s3)cc2)s1 (stereo not shown) | 16.3
62 | Cc1ccc(S(=O)(=O)NCCN2CCOCC2)cc1 | 2.88
63 | COc1ccc(C(=O)COC(=O)c2ccc3ccccc3n2)cc1 | 0.823
64 | O=C(NNC(=O)c1ccccc1[N+](=O)[O-])c1cnccn1 | -1.79
65 | O=C(CC(=O)Nc1cccc(Cl)c1)N/N=C\c1ccccc1 | 2.14
66 | COc1ccccc1NC(=O)C1CC(C)OC1=O (stereo not shown) | 11.8

Row | Compound | hERG current change (%, negative = inhibition) at 1uM [%]
67 | CCn1c(CSc2nc3ccccc3s2)nnc1SCC(=O)c1ccc2c(c1)OCCO2 | -1.35
68 | CCN(Cc1ccccc1)S(=O)(=O)c1c(N)n(C)c(=O)n(C)c1=O | -0.624
69 | COc1ccc(/C=C2\SC(=S)N(CC(=O)NCCO)C2=O)cc1 | 17
70 | O=c1oc2ccccc2c(Nc2cccc3cccnc23)c1[N+](=O)[O-] | 13
71 | Cc1oc(-c2ccc(Cl)cc2)nc1CN1CCC(C(=O)NCC2CCCO2)CC1 (stereo not shown) | -28.4
72 | CC1CCCC(C)N1CC(O)Cn1c2ccccc2c2ccccc21 (stereo not shown) | 2.9
73 | Cc1ccc(CNS(=O)(=O)c2c(N)n(C)c(=O)n(C)c2=O)cc1 | 11.2
74 | CC(C)CCNS(=O)(=O)c1cc2c3c(c1)CCN3C(=O)CC2 | 8.65
75 | O=C(CSc1nnc(CNC(=O)c2cccs2)o1)NCCc1ccccc1 | 2.78
76 | CCc1ccc(/C=C2\SC(=S)N(CCC(=O)NC3=NCCS3)C2=O)cc1 | 17.2
77 | O=C(c1ccc2nc[nH]c2c1)N1CCc2ccccc2C1 | 6.36
78 | CS(=O)(=O)N(CC(=O)NCCc1ccccc1)C1CCCCC1 | -4.18
79 | CC1=C(C(=O)N2CCc3ccccc32)C2(CCC(C)CC2)OC1=O (stereo not shown) | 1.66
80 | O=C(Nc1ccc2c(c1)CCC2)Nc1ccc(F)cc1F | 10.5
81 | CC(C)c1ccccc1NC(=O)COC(=O)Cc1c[nH]c2ccccc12 | 15.8
82 | O=C(NC1CC1)C1=C[C@H](C2CCCCC2)C[C@H](OCCCCO)O1 | 11.7
83 | CSc1ccc(NS(=O)(=O)c2ccc(-n3cnnn3)cc2)cc1 | 11.2
84 | O=C(CS(=O)(=O)c1ccccc1)NCc1ccc(Cl)cc1 | 11
85 | NC(=O)c1ccccc1OCC(=O)NC12CC3CC(CC(C3)C1)C2 | 11.1
86 | Cc1ccc2[nH]c3c(=O)[nH]ncc3c2c1 | 13.6
87 | O=C(CCCN1C(=O)c2ccccc2C1=O)Nc1ccc2c(c1)OCCO2 | 16.2
88 | CCCCN1C(=O)C(O)=C(C(C)=O)C1c1ccccc1[N+](=O)[O-] (stereo not shown) | 4.11
